In a collection of fitness landscapes (doi:10.1016/j.celrep.2020.107928):
The full ranking holds about 81,000 sequences; the median of “one-hybrid fitness for binding parS DNA” is about -0.17, and the highest 2% start at about 0.51. The list shows a part of the results.

B1: Caulobacter ParB omega fusion; a variant is named by its letters at X, in order, B8GW30 (parent)
chain: MESVVVGEPGMSEGRRGLGRGLSALLGEVDAAPAQAPGEQLGGSREAPIEILQRNPDQPRRTFREEDLEDLSNSIREKGVLQPILVRPSPDTAGEYQIVAGERAWRAAQRAGLKTVPIMVRELDDLAVLEIGIIENVQRADLNVLEEALSYKVLMEKFERTQENIAQTIGKSXSHVANXMRLLXLPDEVQSYLVSGELTAXHARAIAAAADPVALAKQIIEGGLSVRETEALARKAPNLSAGKSKGGRPPRVKDTDTQALESDLSSVLGLDVSIDHRGSTGTLTITYATLEQLDDLCNRLTRGI

Variants of: B1
Assay: one-hybrid fitness for binding parS DNA (scaled: cognate 1, non-cognate 0); higher = stronger binding
Details: with parS DNA site
Procedure, shortened: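 On M9-minus-histidine containing 0.1 mM IPTG and 5 mM 3-AT, E. coli USO cells with a HIS3 reporter, site 19 bp from the promoter, grew 48 hours at 37°C to select Caulobacter ParB libraries randomised at four specificity codons. Plasmids from before and after were Illumina-sequenced, with three replicate libraries pooled and variants under 10 reads left out. Fitness is the log change in variant-to-wild-type read ratio, rescaled against cognate and non-cognate.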

Variant | one-hybrid fitness for binding parS DNA
SRPI | ≤ 0.2
RIMI | ≤ 0.2
GRHG | ≤ 0.2
MSAT | ≤ 0.2
FACS | ≤ 0.2
QGTS | ≤ 0.2
QPRK | ≤ 0.2
PKGR | ≤ 0.2
YAFL | ≤ 0.2
QCPF | ≤ 0.2
DVPT | ≤ 0.2
QMFC | ≤ 0.2
SVKD | ≤ 0.2
KDKT | ≤ 0.2
RQGV | ≤ 0.2
EVYD | ≤ 0.2
HNNP | ≤ 0.2
KHAR | ≤ 0.2
WVEL | ≤ 0.2
QMEF | ≤ 0.2
NILF | ≤ 0.2
SLQS | ≤ 0.2
NMAL | ≤ 0.2
NRRF | ≤ 0.2
KQAT | ≤ 0.2
GPRV | ≤ 0.2

Variant | one-hybrid fitness for binding parS DNA
MHRY | ≤ 0.2
TQSF | ≤ 0.2
DLRE | ≤ 0.2
EKWT | ≤ 0.2
STWR | ≤ 0.2
LDPY | ≤ 0.2
DTTN | ≤ 0.2
SQIT | ≤ 0.2
CRHT | ≤ 0.2
TSCC | ≤ 0.2
SAYR | ≤ 0.2
TLRI | ≤ 0.2
YHCD | ≤ 0.2
QMWT | ≤ 0.2
AYTT | ≤ 0.2
VWGW | ≤ 0.2
RNQG | 0.882
LSPP | ≤ 0.2
QRMY | ≤ 0.2
RAKC | 0.91
YQPG | ≤ 0.2
QKMH | ≤ 0.2
ACTF | ≤ 0.2
QGLY | ≤ 0.2
YGGL | ≤ 0.2
MNDF | ≤ 0.2

Variant | one-hybrid fitness for binding parS DNA
KNTG | ≤ 0.2
HGLG | ≤ 0.2
CTEG | ≤ 0.2
RNTP | ≤ 0.2
RLAQ | ≤ 0.2
RGDI | ≤ 0.2
RYPT | 0.403
VSSF | ≤ 0.2
TLVL | ≤ 0.2
KHPD | ≤ 0.2
TQRM | ≤ 0.2
RIYL | ≤ 0.2
RCCY | 0.526
DECN | ≤ 0.2
YMHF | ≤ 0.2
QLMD | ≤ 0.2
QHIR | ≤ 0.2
FSKD | ≤ 0.2
RGCA | ≤ 0.2
SFSN | ≤ 0.2
VPTA | ≤ 0.2
YISK | ≤ 0.2
SMMR | ≤ 0.2
TVTP | ≤ 0.2
QIKN | ≤ 0.2
TMSV | ≤ 0.2

Variant | one-hybrid fitness for binding parS DNA
MRYM | ≤ 0.2
PHVI | ≤ 0.2
NGMR | ≤ 0.2
KLCA | ≤ 0.2
ACHM | ≤ 0.2
YMHY | ≤ 0.2
NTIE | ≤ 0.2
SFHM | ≤ 0.2
FSYE | ≤ 0.2
SHWV | ≤ 0.2
NEMG | ≤ 0.2
YQTS | ≤ 0.2
QSDH | ≤ 0.2
TQGL | ≤ 0.2
SYGA | ≤ 0.2
SNNF | ≤ 0.2
THVR | ≤ 0.2
YVRG | ≤ 0.2
RMDY | 0.405
RMEF | ≤ 0.2
STSC | ≤ 0.2
LVNV | ≤ 0.2
VCSR | ≤ 0.2
GPQV | ≤ 0.2
KAQR | ≤ 0.2
SSWP | ≤ 0.2

Variant | one-hybrid fitness for binding parS DNA
GMNR | ≤ 0.2
RPLA | ≤ 0.2
CVMT | ≤ 0.2
CKRR | ≤ 0.2
PTFR | ≤ 0.2
GSAN | ≤ 0.2
KDRS | ≤ 0.2
GYSG | ≤ 0.2
GEPE | ≤ 0.2
QHRN | ≤ 0.2
AMSD | ≤ 0.2
SGLP | ≤ 0.2
KCAN | ≤ 0.2
PVFE | ≤ 0.2
QMGS | ≤ 0.2
RIEC | 0.791
GGHT | ≤ 0.2
TSAE | ≤ 0.2
QPLK | ≤ 0.2
QMVV | ≤ 0.2
IVGS | ≤ 0.2
VASY | ≤ 0.2
DMDS | ≤ 0.2
CATA | ≤ 0.2
QEAF | ≤ 0.2
TVHK | ≤ 0.2

Variant | one-hybrid fitness for binding parS DNA
GQSR | ≤ 0.2
VSIL | ≤ 0.2
GQTW | ≤ 0.2
VEPH | ≤ 0.2
HNDC | ≤ 0.2
YDAT | ≤ 0.2
YCYS | ≤ 0.2
YVTT | ≤ 0.2
TQGW | ≤ 0.2
YPDY | ≤ 0.2
TCRD | ≤ 0.2
RGFV | ≤ 0.2
SMYI | ≤ 0.2
CLML | ≤ 0.2
SWAY | ≤ 0.2
MWHL | ≤ 0.2
SYHS | ≤ 0.2
EMPR | ≤ 0.2
ASVY | ≤ 0.2
MEPS | ≤ 0.2
AARA | ≤ 0.2
LLYH | ≤ 0.2
DYLM | ≤ 0.2
